Test results: article PMC6919601, “Identification of Plasmodium dipeptidyl aminopeptidase allosteric inhibitors by high throughput screening” (PLoS ONE, 2019)
About 230 (0.21%) of roughly 110,000 compounds showed an effect of 50% or more. The list shows a part of the results.

molecular target: DPAP1 (Plasmodium falciparum, UniProt Q8IIJ9); assay: primary screen, percent inhibition; read by cleavage of a fluorogenic dipeptide substrate; higher = more effect of the substance; design: species or system P. falciparum D10 trophozoite lysates; single well
Sequence (Q8IIJ9 whole entry, looked up): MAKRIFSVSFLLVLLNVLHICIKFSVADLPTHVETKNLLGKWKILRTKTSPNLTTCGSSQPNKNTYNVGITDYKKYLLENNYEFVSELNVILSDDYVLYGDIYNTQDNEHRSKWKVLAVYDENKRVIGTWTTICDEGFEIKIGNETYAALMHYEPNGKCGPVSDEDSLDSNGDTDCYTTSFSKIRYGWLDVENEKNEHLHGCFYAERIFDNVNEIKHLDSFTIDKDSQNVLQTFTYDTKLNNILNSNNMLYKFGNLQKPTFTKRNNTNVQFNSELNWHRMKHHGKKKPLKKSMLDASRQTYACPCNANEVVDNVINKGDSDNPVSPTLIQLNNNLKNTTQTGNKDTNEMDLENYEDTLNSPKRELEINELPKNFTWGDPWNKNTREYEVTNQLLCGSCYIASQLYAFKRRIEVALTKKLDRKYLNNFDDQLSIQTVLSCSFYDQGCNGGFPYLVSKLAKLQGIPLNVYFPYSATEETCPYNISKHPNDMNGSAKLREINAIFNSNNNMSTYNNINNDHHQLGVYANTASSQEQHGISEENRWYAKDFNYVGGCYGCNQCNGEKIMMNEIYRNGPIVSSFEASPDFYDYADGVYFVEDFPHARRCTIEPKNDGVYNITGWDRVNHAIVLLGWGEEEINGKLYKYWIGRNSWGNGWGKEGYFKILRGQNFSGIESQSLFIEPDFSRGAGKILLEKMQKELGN
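Note: 30 min substrate incubation versus DMSO and 10 µM JCP410 controls.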

SMILES	% Inhibition @ 10 uM [%]
O=C(Cn1c(COc2ccccc2)nc2ccccc21)NC12CC3CC(CC(C3)C1)C2	1.32
Cc1cccc(OCC(=O)Nc2cccc(Oc3ccc4c(c3)C(=O)NC4=O)c2)c1C	4.76
CCCOc1ccc(C2(C)CC(=O)NC2=O)cc1 (stereo not drawn)	-6.22
CCCCCN1CCCn2c1nc1c2c(=O)n(C)c(=O)n1C	4.11
O=C(NCc1ccccc1)C(=O)Nc1cccc2ccccc12	3.15
CCOc1ccccc1OCc1nn2c(-c3ccc(C)cc3)nnc2s1	2.89
CCOC(=O)c1sc(N2C(=O)c3oc4cc(C)c(C)cc4c(=O)c3C2c2ccc(F)cc2)nc1C (stereo not drawn)	3.73
Cc1ccccc1OCC(=O)Nc1ccccc1C(=O)Nc1ccccc1	-2.8
CC(c1ccccc1)n1c(S(=O)(=O)O)nc2ccccc21 (stereo not drawn)	-0.0626
N#CC1=C(N)N(c2cccc(Br)c2)C2=C(C(=O)CCC2)C1c1cccs1 (stereo not drawn)	-0.305
COc1ccc2cc(C=O)c(Cl)nc2c1	12.3
O=S(=O)(c1ccc(Cl)cc1)N1CCOC1C(Cl)(Cl)Cl (stereo not drawn)	18
Cn1nc(C(=O)NCCc2ccc(Cl)cc2)c2c1-c1ccccc1S(=O)(=O)C2	2.07
c1ccc(-n2ncc3c2CCc2c-3[nH]c3ccccc23)cc1	-0.424
COc1ccc(Br)cc1CNC(=O)CCn1c(=O)c2cccn2c2cccnc21	6.65
CC(C)C[C@H](NC(=O)c1ccccn1)C(=O)NCC#N	-9.15
Cc1ccccc1/C=C1\Cc2ccccc2C1=O	-2.95
Cc1[nH]c2ccccc2c1CCC(=O)NC(C)(C)C	-3.58
CCc1c(C)sc(N)c1C(=O)NC1CCCCC1	3.03
C#CCNC(=O)Cn1c(C)nc2ccccc21	-0.473
N#CC1=C(NC(=O)Cc2ccccc2)c2ccccc2CC12CCCCC2	-0.807
Cc1sc2[nH]c(=O)n(-c3ccc(Cl)c(Cl)c3)c(=O)c2c1C	-0.711

SMILES	% Inhibition @ 10 uM [%]
Cc1cccc(N2CCN(Cc3ccnc4ccccc34)CC2)c1C	-1.78
COC(=O)c1c(NC(=O)c2cc(=O)c3cc(Cl)ccc3o2)sc2c1CCC2	3.31
Cc1c(CCC(=O)O)c(=O)oc2c(C)c3occ(-c4ccccc4)c3cc12	-4.75
CCc1ccccc1N(CC(=O)NC1CCCC1)S(=O)(=O)c1ccccc1	-0.564
Cc1cccc(Cn2c(N3CCNCC3)nc3c2c(=O)[nH]c(=O)n3C)c1	6.92
CCC1CCc2c(sc(NC(=O)C3CC=CCC3C(=O)O)c2C#N)C1 (stereo not drawn)	2.01
O=S(=O)(NCCSc1ccc(Cl)cc1)c1ccc(Br)cc1	2.05
O=C(NCCCc1ccccc1)c1cc2c(s1)CS(=O)(=O)C2	-3.84
COCCOC(=O)C1=C(C)OC(N)=C(C#N)C1c1ccc(C)cc1 (stereo not drawn)	9.09
CC(O)CN(Cc1ccccc1Cl)CC(C)O (stereo not drawn)	3.48
CC(C)Oc1ccc(OCCn2c(S(=O)(=O)O)nc3c(N)ncnc32)cc1	-3.5
OC1(C#CCN2CCCC2)CCCCC1	-0.128
CCOc1cc(C)c(Cl)cc1S(=O)(=O)N1CCC(C(N)=O)CC1	-7.17
COc1ccc(NC2=C(Cl)C(=O)N(c3ccc(C)cc3)C2=O)cc1	4.75
CCCCNC(=O)CS(=O)Cc1nc(-c2ccc(OC)cc2)oc1C (stereo not drawn)	2.16
O=C(O)COc1ccc(NC(=O)c2ccco2)cc1	0.00178
CC1CCCCC1NS(=O)(=O)c1ccc(S(=O)(=O)N2CCN(CCC#N)CC2)cc1 (stereo not drawn)	-1.82
O=C(c1ccc(CN2CCOCC2)cc1)N1CCN(c2cccc(Cl)c2)CC1	11.5
Oc1cc(C(F)(F)F)nn1-c1nc2ccccc2[nH]1	2.31
COC(=O)c1sccc1NC(=O)/C=C/C(=O)O	0.587
C=CCN(Cc1ccccc1F)C(=O)Nc1ccccc1	2.84
O=C1CC(N2CCN(Cc3ccccc3)CC2)C(=O)N1c1ccc(Br)cc1 (stereo not drawn)	0.147

SMILES	% Inhibition @ 10 uM [%]
CSc1ccc(-c2nc(CSCC(=O)NC(C)c3ccc4c(c3)OCCO4)c(C)o2)cc1 (stereo not drawn)	3.99
CO/C(O)=C1\C(C)=NC(=S)NC1c1cn(-c2ccccc2)nc1-c1ccc(F)cc1 (stereo not drawn)	3.15
NC(=O)c1c(NC(=O)c2ccc(Cn3cc(Br)cn3)cc2)sc2c1CCCC2	6.79
CCOc1ccc(N2C(=O)CC(NCCc3ccccc3Cl)C2=O)cc1 (stereo not drawn)	5.94
COc1ccc(CNc2oc(COc3ccc(OC)cc3)nc2C#N)cc1	-1.98
O=[N+]([O-])c1ccc(N2N=C(c3ccccc3)CC2c2ccccc2)cc1 (stereo not drawn)	-4.06
CCOC(=O)c1cc(-c2ccc(F)cc2)n(CC(=O)N(C)Cc2ccccc2)c1C	-0.176
O=C(O)CC(Cc1ccc(Cl)cc1)C(=O)NCc1ccccc1 (stereo not drawn)	1.12
O=C(c1ccncc1)N1CCN(C(=O)c2ccccc2F)CC1	2.22
O=C(CSc1nc(O)c2c(n1)CCC2)N1CCCCCC1	0.236
O=C(O)C1CSC(c2cccc(OCc3ccccc3)c2)N1 (stereo not drawn)	1.88
CC1=NN(C(=O)CCc2ccccc2)C(O)(c2ccccc2)C1 (stereo not drawn)	-6.67
O=C(COc1ccc(Cl)cc1Cl)NCCn1ccc2ccccc21	-4.16
O=c1cccc(-c2ccc(Br)cc2)o1	10
Cc1cc(-c2ccccc2Cl)oc1-c1nn2c(-c3ccoc3C)nnc2s1	-0.946
O=C(Cn1cnc2cc(Cl)ccc2c1=O)c1cccc2ccccc12	5.44
CCCCCCSc1nc(O)cc(=O)n1C	-0.856
COc1ccc(CCN2C(=O)CSC2c2ccc(F)cc2)cc1OC (stereo not drawn)	-4.57
O=C(Cn1c(-c2cccs2)cc2ccccc21)N1CCN(c2ccccn2)CC1	2.97
CCOc1ccc2nc(NC(=O)CN3C(=S)NC(C)(C)CC3C)sc2c1 (stereo not drawn)	-4.67
COc1ccc(CC(=O)NCC2(c3ccc(OC)c(OC)c3)CCCC2)cc1OC	7.1
Cc1ccccc1CN1CCN(Cc2cccnc2)CC1	-3.87
